Data reported in PubChem BioAssay (NCATS).
The shares of active, inactive and inconclusive entries below differ from those in the screen. Potencies of inconclusive entries are doubtful fits and often do not repeat. Calls of active or inactive are those of the source. Calls follow the shape of the dose curve; as a rule, active = well fitted curve in the direction sought with a large enough effect; inconclusive = small, poorly fitted or top-dose-only effect, or another doubt; inactive = no such curve, though single readings can be large; an effect the other way counts as inactive or inconclusive.

Target: Dual specificity protein kinase CLK4 (Homo sapiens) (UniProt Q9HAZ1)
Assay: qHTS Assay for Inhibitors of CDC-like Kinase 4 (ADP-FP Assay) (AID 1795);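 also: recombinant human CLK4 phosphorylating RS repeat peptide at 1 µM ATP; nearly all actives have a fitted effect of over 60% in size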
Conditions: Transcreener ADP fluorescence polarization; series mostly up to 50 µM
In short: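 Recombinant Clk4 (6.25 nM) phosphorylated 100 uM RS repeat peptide with 1 uM ATP in 25 mM Tris pH 7.5, 10 mM MgCl2, 0.5 mM EGTA, 2.5 mM DTT, 0.01% Triton X-100 for 1 h. ADP was detected by Transcreener ADP2 competitive fluorescence polarization after 30 min at room temperature.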
Potency is read from the fitted curve at half-maximal effect; tags tell the direction and shape of the fitted curve.

UniProt Q9HAZ1, sequence (Q9HAZ1 whole entry, looked up): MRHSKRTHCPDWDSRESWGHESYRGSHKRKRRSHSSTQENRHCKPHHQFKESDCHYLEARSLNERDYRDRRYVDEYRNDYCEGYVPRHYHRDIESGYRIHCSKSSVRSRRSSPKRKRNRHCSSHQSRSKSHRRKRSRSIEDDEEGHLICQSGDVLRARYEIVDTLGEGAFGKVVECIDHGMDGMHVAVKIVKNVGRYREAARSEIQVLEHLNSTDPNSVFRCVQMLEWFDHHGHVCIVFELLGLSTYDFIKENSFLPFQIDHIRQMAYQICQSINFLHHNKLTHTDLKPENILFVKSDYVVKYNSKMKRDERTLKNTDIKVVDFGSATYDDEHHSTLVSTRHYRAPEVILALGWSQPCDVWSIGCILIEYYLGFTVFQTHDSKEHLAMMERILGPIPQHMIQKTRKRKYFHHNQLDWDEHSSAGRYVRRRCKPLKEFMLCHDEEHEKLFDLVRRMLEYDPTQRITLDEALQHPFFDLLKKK

Row | Structure (SMILES) | Potency
1 | c1cncc(CNc2ccnc(-c3ccc4c(c3)OCO4)n2)c1 | active: 0.0447 µM
2 | COc1ccc2[nH]cc(CCNc3cc(-c4ccccc4OC)ncn3)c2c1 | inconclusive: 11.2 µM [falling, partial curve]
3 | Cc1noc(C)c1-c1nc(NC2CCNCC2)c2ccccc2n1 | inconclusive: 12.6 µM [falling, partial curve]
4 | COc1cccc(Nc2ncc3nc(-c4cccs4)c(=O)n(CCC#N)c3n2)c1 | inactive
5 | CC(=O)NCCNc1nc(-c2cccc(C#N)c2)nc2ccccc12 | inconclusive: 12.6 µM [falling, partial curve]
6 | COc1ccccc1-c1ccc2ncnc(NCCNC(C)=O)c2c1 | inconclusive: 14.1 µM [falling, partial curve]
7 | CN(C)C(=O)c1ccc(-c2nc(-n3ccnc3)c3ccccc3n2)cc1 | inconclusive: 22.4 µM [falling, single point]
8 | CN(Cc1ccco1)c1ncnc2ccc(-c3ccccc3C#N)cc12 | inactive
9 | COc1ccccc1CNc1cc(-c2cccnc2)ncn1 | inconclusive: 14.1 µM [falling, partial curve]
10 | c1ccc2c(NCCN3CCOCC3)nc(-c3ccc4c(c3)OCO4)nc2c1 | inactive
11 | Cn1cc(-c2nc3cnc(N4CCOCC4)nc3n(C3CC3)c2=O)c2ccccc21 | inactive
12 | CN(C)c1ccc(-c2nccc(Nc3ccc(F)cc3)n2)cc1 | inconclusive: 14.1 µM [falling, partial curve]

Target: Ubiquitin carboxyl-terminal hydrolase 1 (Homo sapiens) (UniProt O94782)
Assay: Inhibitors of USP1/UAF1: Pilot qHTS (AID 504865);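 also: rhodamine fluorescence freed from ubiquitin-rhodamine substrate followed over time; nearly all actives have a fitted effect of over 35% in size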
Conditions: purified USP1/UAF1, Ub-rhodamine cleavage fluorescence; series mostly up to 54.9 µM
In short: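 USP1/UAF1 complex at 1 nM preincubated 15 min at room temperature with compound, then Ub-Rho substrate added at 150 nM final. Fluorescence (480/540 nm) read kinetically in 50 mM HEPES pH 7.8, 0.5 mM EDTA, 1 mM TCEP, 0.1 mg/ml BSA, 0.01% Tween-20.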

UniProt O94782, sequence (O94782 whole entry, looked up): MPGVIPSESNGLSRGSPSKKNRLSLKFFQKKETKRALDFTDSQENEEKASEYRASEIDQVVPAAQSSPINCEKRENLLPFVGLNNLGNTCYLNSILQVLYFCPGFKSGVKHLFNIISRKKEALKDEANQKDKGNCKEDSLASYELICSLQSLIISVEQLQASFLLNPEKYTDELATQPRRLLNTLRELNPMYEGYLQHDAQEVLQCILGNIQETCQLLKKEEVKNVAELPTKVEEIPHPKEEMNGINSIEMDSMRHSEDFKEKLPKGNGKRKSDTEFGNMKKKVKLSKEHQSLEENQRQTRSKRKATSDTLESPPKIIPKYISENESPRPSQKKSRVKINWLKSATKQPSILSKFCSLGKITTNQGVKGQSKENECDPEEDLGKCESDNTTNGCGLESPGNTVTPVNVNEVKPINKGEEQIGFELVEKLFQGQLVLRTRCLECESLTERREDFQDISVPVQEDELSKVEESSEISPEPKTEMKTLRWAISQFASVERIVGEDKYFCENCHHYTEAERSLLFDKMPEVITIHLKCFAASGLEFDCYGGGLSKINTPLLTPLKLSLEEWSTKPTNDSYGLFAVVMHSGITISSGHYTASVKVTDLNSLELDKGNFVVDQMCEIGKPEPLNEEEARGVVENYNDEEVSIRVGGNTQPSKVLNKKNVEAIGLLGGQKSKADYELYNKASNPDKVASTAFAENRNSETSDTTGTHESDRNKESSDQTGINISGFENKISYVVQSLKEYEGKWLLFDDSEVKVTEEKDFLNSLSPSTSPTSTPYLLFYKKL

Row | Structure (SMILES) | Potency
13 | c1cncc(CNc2ccnc(-c3ccc4c(c3)OCO4)n2)c1 | inactive
14 | N[C@H](C(=O)O)[C@H](Cc1ccccc1)C(=O)O | inactive
15 | CN(Cc1ccco1)c1ncnc2ccc(-c3cccc(NS(C)(=O)=O)c3)cc12 | inactive
16 | Cc1noc(C)c1-c1nccc(NCc2ccccc2)n1 | active: 25.1 µM
17 | COc1cccc(Cn2c(=O)c(C)nc3cnc(Nc4cccc(OC)c4)nc32)c1 | inactive
18 | COc1ccccc1-c1ccc2ncnc(NCCN3CCOCC3)c2c1 | inactive
19 | COc1ccc(-c2nc3cnc(OC)nc3n(C)c2=O)cc1 | inactive
20 | O=c1cnc2cnc(N3CCNCC3)nc2n1C1CC1 | inactive
21 | CN(C)c1nc(-c2ccc3c(c2)OCO3)nc2ccccc12 | inconclusive: 39.8 µM [inhibitor, partial curve, poor fit]
22 | O=c1c(-c2cccs2)nc2cnc(N3CCNCC3)nc2n1Cc1cccs1 | active: 28.2 µM
23 | CN(C)c1ccc(-c2nccc(Nc3ccc(F)cc3)n2)cc1 | inconclusive: 28.2 µM [inhibitor, partial curve, poor fit]

Tested on: not listed separately
Assay: Primary qHTS for small molecule stabilizers of the endoplasmic reticulum resident proteome: Secreted ER Calcium Modulated Protein (SERCaMP) assay (AID 1508630)
Conditions: SH-SY5Y GLuc-SERCaMP secretion, thapsigargin, luminescence; series mostly up to 38.4 µM
In short: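 GLuc-SERCaMP-expressing SH-SY5Y cells, pretreated 16 h with compound, are challenged with thapsigargin to empty ER calcium stores; after 4 h, coelenterazine is added directly to the medium and luminescence is imaged.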

Row | Structure (SMILES) | Potency
24 | Cc1cnc(CNc2ncnc3ccc(-c4ccc(N(C)C)cc4)cc23)cn1 | inconclusive: 28.2 µM [inhibitor, single point]
25 | c1cncc(CNc2ccnc(-c3ccc4c(c3)OCO4)n2)c1 | inactive
26 | COc1ccc2[nH]cc(CCNc3cc(-c4ccccc4OC)ncn3)c2c1 | inconclusive: 28.2 µM [inhibitor, single point]
27 | Cc1noc(C)c1-c1ccc2ncnc(Nc3ccccc3)c2c1 | inactive
28 | Cc1noc(C)c1-c1nc(NC2CCNCC2)c2ccccc2n1 | inconclusive: 28.2 µM [inhibitor, single point]
29 | COc1cccc(-c2nccc(NCc3ccc(OC)cc3OC)n2)c1 | inactive
30 | FC(F)(F)c1ccccc1-c1ccc2ncnc(NCc3cccnc3)c2c1 | inactive
31 | COc1cccc(Nc2ncc3nc(-c4cccs4)c(=O)n(CCC#N)c3n2)c1 | inactive
32 | N[C@H](C(=O)O)[C@H](Cc1ccccc1)C(=O)O | inconclusive: 3.55 µM [inhibitor, full curve]
33 | CN(Cc1ccco1)c1ncnc2ccc(-c3cccc(NS(C)(=O)=O)c3)cc12 | inconclusive: 28.2 µM [inhibitor, single point]
34 | CC(=O)NCCNc1nc(-c2cccc(C#N)c2)nc2ccccc12 | inconclusive: 28.2 µM [inhibitor, single point]
35 | CN1CCN(c2ncc3ncc(=O)n(-c4ccccc4)c3n2)CC1 | inconclusive: 28.2 µM [inhibitor, single point]
36 | CCNc1ncc2nc(-c3ccc(F)cc3)c(=O)n(CCc3ccccc3)c2n1 | inactive
37 | Cc1noc(C)c1-c1nccc(NCc2ccccc2)n1 | inactive
38 | COc1cccc(Cn2c(=O)c(C)nc3cnc(Nc4cccc(OC)c4)nc32)c1 | inconclusive: 28.2 µM [inhibitor, single point]
39 | COc1ccccc1-c1ccc2ncnc(NCCN3CCOCC3)c2c1 | inconclusive: 22.4 µM [inhibitor, single point]
40 | COc1ccccc1-c1ccc2ncnc(NCCNC(C)=O)c2c1 | inconclusive: 25.1 µM [inhibitor, single point]
41 | COc1ccc(-c2nc3cnc(OC)nc3n(C)c2=O)cc1 | inactive
42 | CN1CCN(c2ncc3nc(-c4cccc(C#N)c4)c(=O)n(C)c3n2)CC1 | inconclusive: 11.2 µM [inhibitor, single point]
43 | CCCCC[C@H](O)CC(=O)CCc1ccc(O)c(OC)c1 | inconclusive: 10 µM [inhibitor, partial curve, poor fit]

Row | Structure (SMILES) | Potency
44 | CN(C)C(=O)c1ccc(-c2nc(-n3ccnc3)c3ccccc3n2)cc1 | inactive
45 | CN(Cc1ccco1)c1ncnc2ccc(-c3ccccc3C#N)cc12 | inactive
46 | FC(F)(F)c1ccccc1-c1cncnc1NCCN1CCOCC1 | inconclusive: 25.1 µM [inhibitor, single point]
47 | COc1cccc(Cn2c(=O)c(C)nc3cnc(N(C)C)nc32)c1 | inconclusive: 10 µM [inhibitor, single point]
48 | O=c1cnc2cnc(N3CCNCC3)nc2n1C1CC1 | inconclusive: 2.24 µM [inhibitor, full curve]
49 | CNc1ccnc(-c2ccccc2C)n1 | inactive
50 | COc1ccccc1CNc1cc(-c2cccnc2)ncn1 | inconclusive: 31.6 µM [inhibitor, single point]
51 | CN1CCN(c2ncc3nc(-c4ccc(F)cc4)c(=O)n(C4CC4)c3n2)CC1 | inconclusive: 22.4 µM [inhibitor, single point]
52 | c1ccc2c(NCCN3CCOCC3)nc(-c3ccc4c(c3)OCO4)nc2c1 | inconclusive: 8.91 µM [inhibitor, single point]
53 | COc1cccc(-c2nc(NCCN3CCOCC3)c3ccccc3n2)c1 | inconclusive: 15.8 µM [inhibitor, single point]
54 | COc1cccc(Cn2c(=O)c(CCc3ccccc3)nc3cnc(N4CCN(C)CC4)nc32)c1 | inconclusive: 10 µM [inhibitor, partial curve, poor fit]
55 | CNc1nc(-c2ccccc2CN(C)C)nc2ccccc12 | inactive
56 | CN(C)c1nc(-c2ccc3c(c2)OCO3)nc2ccccc12 | inconclusive: 11.2 µM [inhibitor, partial curve, poor fit]
57 | Cn1cc(-c2nc3cnc(N4CCOCC4)nc3n(C3CC3)c2=O)c2ccccc21 | inactive
58 | COc1ccc(Oc2ncc3nc(-c4ccc(Cl)cc4)c(=O)n(C4CC4)c3n2)cc1 | inconclusive: 31.6 µM [inhibitor, partial curve, poor fit]
59 | O=c1c(-c2cccs2)nc2cnc(N3CCNCC3)nc2n1Cc1cccs1 | inactive
60 | CN(C)c1ccc(-c2nccc(Nc3ccc(F)cc3)n2)cc1 | inconclusive: 28.2 µM [inhibitor, single point]
61 | CN(C)c1ncnc2ccc(-c3cccnc3)cc12 | inactive
62 | COc1ccc(Oc2ncc3nc(-c4cccc(C#N)c4)c(=O)n(CCC#N)c3n2)cc1 | inconclusive: 12.6 µM [inhibitor, single point]
